Test results reported in the supplement of paper PMC4967469.
By IC50 is meant the dose at which the fit gives 50% viability; a fit beyond the top or the lowest dose is shown as a bound at that dose. For AUC the same curve is integrated over the 256-fold range of doses and scaled to a fraction: 1 means no effect, lower means more sensitive. For some of these results: Any top dose called inferred was calculated from the reported fits. For some of these results: An entry number marks a drug with two screens in the source, which often give different values.

Key:
Assay in all cases: Viability of human cancer cell lines after 72 h of drug (GDSC screen)
[1] = compound: CC(C)[C@H](C(=O)Nc1ccc(C(=O)NO)cc1)c1ccccc1 [AR-42]; conditions: top dose 5.12 µM; top dose inferred
Description: (§1)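 Human cancer cell lines in 384-well plates, medium with 10% serum, drug for 72 h over a 256-fold dose range (nine 2-fold or five 4-fold steps up to the top dose). Adherent lines were fixed and stained with the nucleic acid dye Syto60, suspension lines read with resazurin; signal relative to control wells, capped at 0 and 100%. One two-parameter sigmoid per drug and line, fitted in a mixed model over all curves with the slope shared within a line.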

[2] = compound: C[C@]12O[C@H](C[C@]1(O)CO)n1c3ccccc3c3c4c(c5c6ccccc6n2c5c31)CNC4=O [CEP-701]; conditions: top dose 2 µM; top dose inferred
Description: as §1

[3] = compound: CS(=O)(=O)N1CCN(Cc2cc3nc(-c4cccc5[nH]ncc45)nc(N4CCOCC4)c3s2)CC1 [GDC0941]; conditions: top dose 4 µM; screen: GDSC drug entry 1527; top dose inferred
Description: as §1

[4] = compound: Cc1ccc(Nc2nccc(N(C)c3ccc4c(C)n(C)nc4c3)n2)cc1S(N)(=O)=O [Pazopanib]; conditions: top dose 8 µM
Description: as §1

Row | Cell Line | AUC [1] | IC50 [1] [nM] | AUC [2] | IC50 [2] [nM] | AUC [3] | IC50 [3] [nM] | AUC [4] | IC50 [4] [nM]
1 | OAW-42 (ovary, adherent) | 0.711 | 1330 | 0.664 | 372 | 0.517 | 279 | 0.971 | > 8000
2 | OE21 (oesophagus, adherent) | 0.717 | 1690 | 0.578 | 221 | 0.654 | 785 | 0.938 | > 8000
3 | OV-90 (ovary, adherent) | 0.669 | 1090 | 0.735 | 720 | 0.842 | > 4000 | 0.863 | > 8000
4 | PANC-02-03 (pancreas, adherent) | 0.534 | 404 | 0.762 | 850 | 0.711 | 1120 | 0.983 | > 8000
5 | PCI-30 (head and neck, adherent) | 0.922 | > 5120 | 0.828 | 1630 | 0.858 | > 4000 | 0.978 | > 8000
6 | RERF-LC-Sq1 (lung squamous cell carcinoma, adherent) | 0.703 | 1580 | 0.926 | > 2000 | 0.717 | 1390 | 0.958 | > 8000
7 | RT4 (bladder, adherent) | 0.348 | 119 | 0.885 | > 2000 | 0.986 | > 4000 | 0.876 | > 8000
8 | SAT (head and neck, adherent) | 0.616 | 792 | 0.681 | 532 |  |  | 0.935 | > 8000
9 | SISO (cervix, adherent) | 0.754 | 1670 | 0.684 | 398 | 0.772 | 1490 | 0.945 | > 8000
10 | SK-N-AS (neuroblastoma, adherent) | 0.315 | 88.8 | 0.622 | 285 |  |  | 0.967 | > 8000
11 | SKN (uterus, adherent) | 0.645 | 882 | 0.468 | 100 | 0.749 | 1540 | 0.775 | 3860
12 | SKN-3 (head and neck, adherent) | 0.666 | 1010 | 0.689 | 471 | 0.935 | > 4000 | 0.962 | > 8000
13 | SNU-182 (liver, adherent) | 0.571 | 506 | 0.588 | 220 | 0.768 | 1560 | 0.969 | > 8000
14 | SNU-423 (liver, adherent) | 0.506 | 332 | 0.738 | 681 | 0.706 | 1060 | 0.855 | > 8000
15 | SW756 (cervix, adherent) | 0.875 | > 5120 | 0.744 | 727 | 0.912 | > 4000 | 0.91 | > 8000
16 | T-T (oesophagus, adherent) | 0.783 | 2140 | 0.548 | 169 | 0.841 | 2750 | 0.892 | > 8000
